Assay results from article PMC12136788.
Some of the results follow.

T1: UNK ZnF1-3 (human, UniProt Q9C0B0 31-174)
T1 sequence: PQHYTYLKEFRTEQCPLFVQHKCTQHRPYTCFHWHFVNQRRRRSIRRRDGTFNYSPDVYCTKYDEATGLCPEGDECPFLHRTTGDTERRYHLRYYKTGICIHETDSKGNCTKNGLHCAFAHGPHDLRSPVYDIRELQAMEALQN

B1: chr7:7679991:7679992:-_ENSG00000106399_ENST00000396682|hu_hu|motif|central (ssRNA)
RNA: GGGAGUUCUACAGUCCGACGAUCUGGGAUGAAUCUUUUCCAGCCUCCCUACGAAGCAGACAGGCUUGUCGAUGAAUUGAGCGGGCAUGCCGGCGUUGAUGCGCGACCUGGGCAAGUCCAUCAUGUCCACCAUGAUUAUGGUCCCAACAGAGGAUUGAGCAUCA
B2: chr17:65740002:65740003:+_ENSG00000130935_ENST00000581375|hu_hu|hu_hu_hu_mus_False|1_18 (ssRNA)
RNA: GGGAGUUCUACAGUCCGACGAUCAACAAAUCUUUCUUCCCUGGACGAACAGGAAGAUUCAUAUUAAAAAAAAUAUAUAUCCAUCAAGUUAGGUGUGGUGGCCACACCUUUACUCCCCACUUCAAUUGAGGUGGAUCCUCUAUUCAACAGAGGAUUGAGCAUCA
B3: chr17:64801638:64801639:+_ENSG00000154229_ENST00000413366|hu_mus|FALSE|FALSE (ssRNA)
RNA: GGGAGUUCUACAGUCCGACGAUCUAUAUAUAUAUAUACAUAUGUACACAUAUAUAGUAAAACCCUAGUUAAACGUGUAAAGUAGCCAUUCAUUUUUAAAAUUACAUCUACAUUAAAAAAUUAAUAUAUCUGAUAGAGUGCCAGCAACAGAGGAUUGAGCAUCA
B4: chr4:25749455:25749456:-_ENSG00000091490_ENST00000264868|hu_hu|hu_hu_hu_mus_False|68_68 (ssRNA)
RNA: GGGAGUUCUACAGUCCGACGAUCGCACUAUGACCUCUAGAAAAAUCCACAGGGGGAAAAAAUGUAAACCAAUUUACAAUGUUAUCGCCUUCCCUGUGUGUGGAGUGUUUGUCUCAAGGCUCCUUCUAGCUGCUGGAUUUGGGACAACAGAGGAUUGAGCAUCA
B5: chr8:95500983:95500984:-_ENSG00000164944_ENST00000437199|hu_hu|hu_hu_hu_mus_True|18_18 (ssRNA)
RNA: GGGAGUUCUACAGUCCGACGAUCAGAACACAUCUAUCGAGUAAAGGACCGUACAUGACGGCCUCUACCACUGCCUCCACUAACAAACUUUCCUCUCGAGCCUCCACUGCCGCUAUUUUGCACUAGCCAGGACGGUCCCAGGCCCAACAGAGGAUUGAGCAUCA
B6: chr5:145543945:145543946:-_ENSG00000133706_ENST00000545646|hu_hu|hu_hu_hu_mus_True|68_98 (ssRNA)
RNA: GGGAGUUCUACAGUCCGACGAUCCUGAACGGCCAGUGGCGGGAAAUAAUCAAGCCAGUGCUCUGCUUCAGAAAAUUUCACUAUGUCGUCAUCAGAGAGCCCAAGGGAUUUCAUAAUGUCCCACUGGUACUUAGAAGAUCCUGCCAACAGAGGAUUGAGCAUCA
B7: chr8:4269914:4269915:-_ENSMUSG00000002949_ENSMUST00000149827|mus_mus|FALSE|FALSE (ssRNA)
RNA: GGGAGUUCUACAGUCCGACGAUCCUUCUUGGCCUCAUCUCGGAACUUUUUUAUACUUUCUUUCAUCUCUUUGUUUUUGGCUAAUUCUUGUUUGAUGUUAUCUAGCAAGCCUGACAAAAACCCUUUUCUGCUCCCAGAAGAAUACAACAGAGGAUUGAGCAUCA
B8: 128608204_128610563_306_CDS_ENSG00000144231_ENST00000272645|human|control|control (ssRNA)
RNA: GGGAGUUCUACAGUCCGACGAUCAAGGUUGGCCAAACAGGCCAACUCAAACUUAUGAAGCUUUUUCUGGAGUAGCAAGCUACGAACACUGGCAAUGGUCUCUCUGUUUUUGAAACGACUGAAACGGGCUGUGUAGUUUAAUGUCAACAGAGGAUUGAGCAUCA
B9: chr7:141450121:141450122:+_ENSG00000106028_ENST00000265304|hu_mus|hu_hu_hu_mus_True|1_28 (ssRNA)
RNA: GGGAGUUCUACAGUCCGACGAUCUCAUCCGUUCUAUGCCUUUUCUUUUGUCUGGUCACUCAGAAAUAUAAUGUUAUCAGCUAUGAUUGUUGUUGCUUGCCGCCUCACAUUAUUUUUAUCCAUGUACUCGCCAUAGUCUAUUUUCAACAGAGGAUUGAGCAUCA
B10: chr3:135125919:135125920:+_ENSMUSG00000078578_ENSMUST00000106291|mus_mus|FALSE|FALSE (ssRNA)
RNA: GGGAGUUCUACAGUCCGACGAUCCUCUGGCACUAGGGGGUCGUCUGGGUUUGGAUCACAUAGCAGUGAACAAAUGGAUAAAAGAACUUUAGAAAUAGUUAAAGCAGGAGACCACUGUGAUCUUAGAAUAUCAAGACAAAUGCUCAACAGAGGAUUGAGCAUCA
B11: chr4:107939044:107939045:-_ENSMUSG00000034636_ENSMUST00000043616|mus_mus|motif|central (ssRNA)
RNA: GGGAGUUCUACAGUCCGACGAUCACUUAUGAUGUCUGUGAUAGUGAUGUCAGCAUUCACACCCGUGGCAUCAAGUUCGGCGGGCUUGUGGUGGCAAAAGGCUUUCCGGAAAGCAACAGCGGAAAUCUUUGCUUUGCGAAUGCACAACAGAGGAUUGAGCAUCA
B12: chr5:128448638:128448639:+_ENSG00000066583_ENST00000173527|hu_mus|hu_hu_hu_mus_False|8_58 (ssRNA)
RNA: GGGAGUUCUACAGUCCGACGAUCGGCACUCGCCUUAAUUAGGUUCUGAAUUUCCUUGAACUUCGGGUGGUCUUUGUCAGCUACCAGCUGUAGGAGGACAGCCUCACUAGUGGUCACGAUGAUCCCAGUUCGAGCGAGACGCUCCAACAGAGGAUUGAGCAUCA
B13: 89288159_89288279_1509_3pUTR_ENSMUSG00000022619_ENSMUST00000023291|mouse|control|control (ssRNA)
RNA: GGGAGUUCUACAGUCCGACGAUCGUGGCCCGCAAAGAGUGUCCAUGUCCACCAACUCCACGUGGGGCCCUGCCUCAGGGUCUUGGCAGUCCUGGGGUACCGAGUUGGCCUGUGACGCAGCCUCUUCUGGCAGGCGUGGGGCAGCAACAGAGGAUUGAGCAUCA
B14: 143143844_143143964_2533_3pUTR_ENSMUSG00000029578_ENSMUST00000036872|mouse|control|control (ssRNA)
RNA: GGGAGUUCUACAGUCCGACGAUCACCUCACUUUCCUGCCCUUGUAAGACCAAAAGAAAAGGCACAUCACCCCGGGAGGGAAUCUCCUGCCGCCUCCCUGGGAGGGGGAGGGGCCCCUCUACUCUCUGCUAUGUCUGGGGAGGGCAACAGAGGAUUGAGCAUCA

target: T1, UNK ZnF1-3; test: nsRBNS (natural sequence RNA bind-n-seq); RBNS binding buffer (assumed for nsRBNS): 25 mM Tris pH 7.5, 150 mM KCl, 3 mM MgCl2, 0.01% Triton X-100, 500 ug/ml BSA, 20 U/ml SUPERase-In, 4 C; UNK is unkempt and MSI1 is Musashi-1; names of the RNAs are library labels; protein concentration not given here; high values mean tight binding

Binder	binding signal
B1	0.879 enrichment R
B2	0.808 enrichment R
B3	2.01 enrichment R
B4	0.98 enrichment R
B5	1.12 enrichment R
B6	1.26 enrichment R
B7	0.708 enrichment R
B8	0.928 enrichment R
B9	0.428 enrichment R
B10	1.81 enrichment R
B11	1.08 enrichment R
B12	0.758 enrichment R
B13	0.56 enrichment R
B14	1.86 enrichment R
